Results on 44 molecules are retold here after the supplement of paper PMC6609913.

SMILES strings stand for the structures. Where a name gives a salt, the structure may show the parent alone. ± gives the standard deviation of the averaged measurements. The full ranking holds about 1,300 compounds; the median of “normalised cell viability” is about 1, and the lowest 2% start at about 0.15. This is one part of the list.

The experiment concerns V-C8 + BRCA2 (BRCA2-proficient hamster cells). In words: normalised cell viability (fraction of plate median); higher = more viable cells (less toxic). Particulars: 5 µM. In outline:
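BRCA2-deficient hamster V-C8 cells and BRCA2-restored V-C8 cells were plated in 96-well plates, and library drugs were added 24 h later at 5 μM in 100 μl medium. Exposure lasted 3 days in screen 1 and 6 days in screen 2, next to solvent-only wells. Viability was then read by resazurin assay, median-plate normalised and averaged across triplicate wells.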

Turning to `NS(=O)(=O)c1cc(C2(O)NC(=O)c3ccccc32)ccc1Cl` (stereo not drawn) [Chlorthalidone], the normalised cell viability amounted to 1.1 ± 0.018 (treatment time: 3 days) and 1.03 ± 0.079 (treatment time: 6 days).

For `C=CC(N)CCC(=O)O` (stereo not drawn) [Vigabatrin], the normalised cell viability is 1.02 ± 0.03 (treatment time: 3 days) and 1.11 ± 0.058 (treatment time: 6 days).

Consider `CC(C)c1c(C(=O)Nc2ccccc2)c(-c2ccccc2)c(-c2ccc(F)cc2)n1CC[C@@H](O)C[C@@H](O)CC(=O)O` [Atorvastatin], for which the normalised cell viability reads like this: (treatment time: 3 days) 0.701 ± 0.01; (treatment time: 6 days) 0.743 ± 0.017.

For `Cc1ncc(C[n+]2csc(CCO)c2C)c(N)n1` [Thiamine hydrochloride], the normalised cell viability (treatment time: 3 days) was 1.03 ± 0.043 and the normalised cell viability (treatment time: 6 days) was 1.02 ± 0.076.

As to `CC(=O)OCC(=O)[C@@]1(O)CC[C@H]2[C@@H]3CCC4=CC(=O)CC[C@]4(C)[C@H]3[C@@H](O)C[C@@]21C` [Cortisol acetate], the normalised cell viability worked out at 1.07 ± 0.047 (treatment time: 3 days) and 1.14 ± 0.14 (treatment time: 6 days).

As for `CCN[C@H]1CN(CCCOC)S(=O)(=O)c2sc(S(N)(=O)=O)cc21` [Brinzolamide], the normalised cell viability is, setting by setting: (treatment time: 3 days) 1.16 ± 0.015; (treatment time: 6 days) 1.02 ± 0.024.

For `CC[N+](C)(CC)CCOC(=O)C1c2ccccc2Oc2ccccc21` [Methantheline bromide], the normalised cell viability stood at 1.02 ± 0.039 (treatment time: 3 days) and 0.993 ± 0.1 (treatment time: 6 days).

In the case of `Cc1ccc(C(=O)c2ccc(CC(=O)O)n2C)cc1` [Tolmetin sodium salt dihydrate], the normalised cell viability reads like this: (treatment time: 3 days) 1.03 ± 0.035; (treatment time: 6 days) 1 ± 0.021.

Regarding `COC(=O)Nc1nc2cc(C(=O)c3cccs3)ccc2[nH]1` [Nocodazole], the normalised cell viability (treatment time: 3 days) was 0.143 ± 0.0097 and the normalised cell viability (treatment time: 6 days) was found to be 0.132 ± 0.01.

As for `CCCCN(CCCC)CCCOC(=O)c1ccc(N)cc1` [Butacaine], the normalised cell viability was 1.01 ± 0.022 (treatment time: 3 days) and 1.08 ± 0.044 (treatment time: 6 days).

With `CC(=O)OCC(=O)[C@@]1(O)CC[C@H]2[C@@H]3CCC4=CC(=O)CC[C@]4(C)[C@@]3(F)[C@@H](O)C[C@@]21C` [Fludrocortisone acetate], the normalised cell viability (treatment time: 3 days) came to 1.04 ± 0.025 and the normalised cell viability (treatment time: 6 days) is 1.05 ± 0.039.

Take `Cc1cn[nH]c1` [Fomepizole]: the normalised cell viability was found to be 1.07 ± 0.021 (treatment time: 3 days) and 0.9639 ± 0.0076 (treatment time: 6 days).

Turning to `NCCc1c[nH]cn1` [Histamine dihydrochloride], the normalised cell viability by setting is: (treatment time: 3 days) 0.994 ± 0.016; (treatment time: 6 days) 0.991 ± 0.064.

Regarding `CCCOc1cc(N)ccc1C(=O)OCCN(CC)CC` [Propoxycaine hydrochloride], the normalised cell viability (treatment time: 3 days) worked out at 1.06 ± 0.053 and the normalised cell viability (treatment time: 6 days) was 0.916 ± 0.26.

In the case of `OC(Cn1cncn1)(Cn1cncn1)c1ccc(F)cc1F` [Fluconazole], the normalised cell viability is 1.04 ± 0.019 (treatment time: 3 days) and 0.944 ± 0.079 (treatment time: 6 days).

On to `CC[N+](C)(C)c1cccc(O)c1` [Edrophonium chloride], for which the normalised cell viability reads like this: (treatment time: 3 days) 0.863 ± 0.029; (treatment time: 6 days) 0.972 ± 0.018.

In the case of `CN1CCC(=C2c3ccccc3C=Cc3ccccc32)CC1` [Cyproheptadine hydrochloride], the normalised cell viability by setting is: (treatment time: 3 days) 0.94 ± 0.067; (treatment time: 6 days) 0.959 ± 0.08.

Consider `CO[C@H]1/C=C/O[C@@]2(C)Oc3c(C)c(O)c4c(O)c(c(/C=N/N5CCN(C6CCCC6)CC5)c(O)c4c3C2=O)NC(=O)/C(C)=C\C=C\[C@H](C)[C@H](O)[C@@H](C)[C@@H](O)[C@@H](C)[C@H](OC(C)=O)[C@@H]1C` [Rifapentine], for which the normalised cell viability runs as follows: (treatment time: 3 days) 0.985 ± 0.021; (treatment time: 6 days) 0.954 ± 0.072.

As for `CC(C)(C)NC[C@@H](O)COc1cccc2c1CCCC2=O` [(+) -Levobunolol hydrochloride], the normalised cell viability (treatment time: 3 days) was 1.016 ± 0.0063 and the normalised cell viability (treatment time: 6 days) stood at 1.01 ± 0.039.

Take `N=C(N)NC(=N)NCCc1ccccc1` [Phenformin hydrochloride]: the normalised cell viability (treatment time: 3 days) came out at 1.01 ± 0.029 and the normalised cell viability (treatment time: 6 days) amounted to 0.9752 ± 0.0082.

On to `C[C@H]1O[C@H](O[C@H]2[C@H](O)[C@@H](O)[C@@H](O[C@H]3[C@H](O)[C@@H](O)C(O)O[C@@H]3CO)O[C@@H]2CO)[C@H](O)[C@@H](O)[C@@H]1N[C@H]1C=C(CO)[C@@H](O)[C@H](O)[C@H]1O` (stereo partly drawn) [Acarbose], for which the normalised cell viability (treatment time: 3 days) turned out to be 0.928 ± 0.072 and the normalised cell viability (treatment time: 6 days) came out at 1.03 ± 0.056.

Regarding `NNCCc1ccccc1` [Phenelzine sulfate], the normalised cell viability is, setting by setting: (treatment time: 3 days) 1.01 ± 0.04; (treatment time: 6 days) 0.959 ± 0.058.

With `CC(=O)S[C@@H]1CC2=CC(=O)CC[C@]2(C)[C@H]2CC[C@@]3(C)[C@@H](CC[C@@]34CCC(=O)O4)[C@H]12` [Spironolactone], the normalised cell viability by setting is: (treatment time: 3 days) 1.12 ± 0.041; (treatment time: 6 days) 1.01 ± 0.077.

`CCCc1cc(C(N)=S)ccn1` [Prothionamide]: the normalised cell viability turned out to be 0.993 ± 0.021 (treatment time: 3 days) and 1.03 ± 0.046 (treatment time: 6 days).

For the molecule `CC(Cc1cccc(C(F)(F)F)c1)NCCOC(=O)c1ccccc1` (stereo not drawn) [Benfluorex hydrochloride], the normalised cell viability reads like this: (treatment time: 3 days) 1.18 ± 0.023; (treatment time: 6 days) 1.05 ± 0.064.

With `OCC(O)CN1CCN(c2ccccc2)CC1` (racemic) [Dropropizine (R,S)], the normalised cell viability by setting is: (treatment time: 3 days) 1.07 ± 0.041; (treatment time: 6 days) 0.9583 ± 0.0092.

As to `CNc1ncnc2c1ncn2[C@@H]1O[C@H](CO)[C@@H](O)[C@H]1O` [N6-methyladenosine], the normalised cell viability is, setting by setting: (treatment time: 3 days) 1.13 ± 0.12; (treatment time: 6 days) 1 ± 0.012.

Turning to `CC(C)(C)C(=O)OCOC(=O)[C@@H]1N2C(=O)[C@@H](/N=C/N3CCCCCC3)[C@H]2SC1(C)C` [Pivmecillinam hydrochloride], the normalised cell viability is, setting by setting: (treatment time: 3 days) 0.993 ± 0.063; (treatment time: 6 days) 1.05 ± 0.065.

For the molecule `C[C@@H](O)[C@H]1C(=O)N2C(C(=O)O)=C(SCCNC=N)C[C@H]12` [Imipenem], the normalised cell viability stood at 1.005 ± 0.0084 (treatment time: 3 days) and 1.01 ± 0.062 (treatment time: 6 days).

On to `c1ccc2c(c1)CCCC2C1=NCCN1` (stereo not drawn) [Tetrahydrozoline hydrochloride], for which the normalised cell viability is, setting by setting: (treatment time: 3 days) 0.982 ± 0.046; (treatment time: 6 days) 1.03 ± 0.084.

As to `O=C1NCCN1c1ncc([N+](=O)[O-])s1` [Niridazole], the normalised cell viability is 1.01 ± 0.016 (treatment time: 3 days) and 1.04 ± 0.048 (treatment time: 6 days).

In the case of `C1N2CN3CN1CN(C2)C3` [Methenamine], the normalised cell viability is, setting by setting: (treatment time: 3 days) 1.01 ± 0.067; (treatment time: 6 days) 0.95 ± 0.032.

`CCCCCN(C)CCC(O)(P(=O)(O)O)P(=O)(O)O` [Ibandronate sodium]: the normalised cell viability (treatment time: 3 days) worked out at 0.796 ± 0.035 and the normalised cell viability (treatment time: 6 days) is 0.181 ± 0.0055.

With `Nc1ccc(S(=O)(=O)NC(=O)c2ccccc2)cc1` [Sulfabenzamide], the normalised cell viability was 0.913 ± 0.014 (treatment time: 3 days) and 1.03 ± 0.015 (treatment time: 6 days).

Turning to `C=C(CC)C(=O)c1ccc(OCC(=O)O)c(Cl)c1Cl` [Ethacrynic acid], the normalised cell viability turned out to be 1.07 ± 0.015 (treatment time: 3 days) and 1.03 ± 0.067 (treatment time: 6 days).

With `CCN(CC)CCCC(C)Nc1ccnc2cc(Cl)ccc12` (stereo not drawn) [Chloroquine diphosphate], the normalised cell viability was 0.852 ± 0.023 (treatment time: 3 days) and 0.938 ± 0.082 (treatment time: 6 days).

As for `CS(=O)(=O)c1ccc([C@@H](O)[C@@H](CF)NC(=O)C(Cl)Cl)cc1` [Florfenicol], the normalised cell viability amounted to 0.806 ± 0.048 (treatment time: 3 days) and 0.905 ± 0.14 (treatment time: 6 days).

On to `Oc1ccc(C2CNCCc3c2cc(O)c(O)c3Cl)cc1` (stereo not drawn) [Fenoldopam], for which the normalised cell viability runs as follows: (treatment time: 3 days) 0.972 ± 0.04; (treatment time: 6 days) 1 ± 0.06.

For the molecule `CC(C(=O)O)c1cccc(Oc2ccccc2)c1` (stereo not drawn) [Fenoprofen calcium salt dihydrate], the normalised cell viability reads like this: (treatment time: 3 days) 1.02 ± 0.034; (treatment time: 6 days) 0.997 ± 0.086.

For `CCCc1ncc(C[n+]2ccccc2C)c(N)n1` [Amprolium hydrochloride], the normalised cell viability reads like this: (treatment time: 3 days) 0.925 ± 0.068; (treatment time: 6 days) 1.1 ± 0.23.

Consider `CCn1cc(C(=O)O)c(=O)c2cc(F)c(N3CCNCC3)nc21` [Enoxacin], for which the normalised cell viability by setting is: (treatment time: 3 days) 0.995 ± 0.058; (treatment time: 6 days) 1.033 ± 0.01.

Regarding `CC(=O)OCC(=O)NCCCOc1cccc(CN2CCCCC2)c1` [Roxatidine Acetate HCl], the normalised cell viability is, setting by setting: (treatment time: 3 days) 0.429 ± 0.011; (treatment time: 6 days) 0.467 ± 0.018.

With `OCCN1CCN(CCCN2c3ccccc3Sc3ccc(C(F)(F)F)cc32)CC1` [Fluphenazine dihydrochloride], the normalised cell viability was determined as 0.825 ± 0.062 (treatment time: 3 days) and 0.662 ± 0.096 (treatment time: 6 days).

For the molecule `CC(C)(Oc1ccc(CCNC(=O)c2ccc(Cl)cc2)cc1)C(=O)O` [Bezafibrate], the normalised cell viability stood at 1.003 ± 0.0026 (treatment time: 3 days) and 1.01 ± 0.07 (treatment time: 6 days).
